US5175253A, “Binding peptides” (Washington University, priority 1991, dated 1992)
Entries after “also recorded” stand apart in the source; their conditions may differ. Not every detail of the peptide structures is certain; ends, links or a residue may be inferred. Some compounds share one wording; it may come from a single statement. Ends that are not written are not given here. Peptide text beside a SMILES is read from it.

Tests used:
SEC receptor [1] = test: Competition for binding of 125I peptide 105Y to HepG2 cells; set-up: species or system human; settings: for competition for binding of 125I peptide 105Y to HepG2 cells: 125I peptide 105Y 50 nM, 2 hrs at 4° C., unlabelled competitor; for binding activity against the SEC receptor: summary statement
Protocol: For each test HepG2 cells were incubated for 2 hrs at 4° C. in binding buffer, ^125 I peptide 105Y at saturating concentrations (50 nM) and competing unlabelled synthetic peptides in the concentrations specified on the horizontal axis. […] Binding in the absence of competitor was arbitrarily designated 100% binding on the vertical axis. Each data point and set of error bars represent mean and 1 standard deviation for four separate determinations. Partial amino acid sequences of α1 AT and synthetic peptides are shown at the top of each of panels a, b and c.
Each bar represents mean and 1 standard deviation for 3 separate determinations.

SEC receptor [2] = test: Competition for binding of α1 AT-125I trypsin complexes to HepG2 cells; set-up: species or system human; settings: for inhibition of binding of α1 AT-125I trypsin complexes to HepG2 cells: complexes 50 nM, competitor in 50-fold molar excess, 2 hrs at 4° C.
Protocol: (§1) FIG. 2 presents two bar graphs which show competition for binding and internalization of α1 AT^125 I trypsin complexes by HepG2 cells. For panel a, HepG2 cells were incubated for 2 hours at 4° C. in binding buffer, α1 AT-^125 I trypsin complexes in subsaturating concentrations (50 nM) and competing unlabelled proteins or synthetic peptides in 50-fold molar excess. The cells were then rinsed, homogenized and cell-associated radioactivity determined. Binding in the absence of competitor was arbitrarily designated 0% inhibition of binding on the vertical axis. Results represent mean and 1 standard deviation for 3 separate determinations of each competitor. For panel b, HepG2 cells were incubated for 1 hour at 37° C. in binding buffer, α1 AT^125 I trypsin complexes in subsaturating concentrations (50 nM) and competing unlabelled proteins or synthetic peptides in 50-fold molar excess. […] Internalization in the absence of competitor was arbitrarily designated 0% inhibition of internalization on the vertical axis. Results represent mean and 1 standard deviation for 3 separate determinations of each putative competitor. Partial amino acid sequences for α1 AT and peptides are shown at the top of each panel.
HepG2 cells were incubated for 2 hrs at 4° C. in binding buffer containing ^125 I trypsin-α1 AT complexes at subsaturating concentrations (50 nm) and putative competing unlabelled proteins or synthetic peptides in 50-fold molar excess. Each bar represents mean and 1 standard deviation for 3 separate determinations of each putative competitor.

SEC receptor [3] = test: Competition for internalization of α1 AT-125I trypsin complexes by HepG2 cells; format: cell-based, human; settings: 50-fold molar excess, 60 minutes at 37° C., Proteinase K-resistant radioactivity
Protocol: as §1, with “Partial amino acid sequences for α1 AT and peptides are shown at the top of each panel.” left out
The cells were then rinsed extensively and incubated with Proteinase K for an additional 60 minutes at 4° C. to remove any surface bound radiolabelled ligand. Internalization was defined as radioactivity associated with the resulting cell pellet. […]

synthesis of α1 AT [4] = test: Effect of synthetic peptides on synthesis of α1 AT in human monocytes (metabolic labelling); format: cell-based; settings: 5 hours at 37° C., polymyxin B
[5] = system: complement protein factor B; test: Specificity controls in human monocytes: total protein synthesis and synthesis of complement protein factor B; format: cell-based
synthesis of α1 AT [6] = test: Effect on synthesis of α1 AT in HepG2 cells; format: cell-based, human
[7] = alanine substitution relative to FVFLM, 50-fold molar excess

Molecule | competition for binding of 125I peptide 105Y to HepG2 cells (SEC receptor [1]) | inhibition of binding of α1 AT-125I trypsin complexes to HepG2 cells (SEC receptor [2]) | other results
FVFLA [peptide FVFLA, Phe-Val-Phe-Leu-Ala] | completely abrogates binding | almost completely abrogates competitive binding | reduction of competitive binding efficacy (SEC receptor [2]; [7]): 56%
CC[C@H](C)[C@H](NC(=O)[C@H](CC(C)C)NC(=O)[C@H](Cc1ccc(O)cc1)NC(=O)[C@@H](N)C(C)C)C(=O)O [peptide 105C-N] (H-VYLI-OH) | completely abrogates competitive binding | not inhibited | inhibition of internalization of α1 AT-125I trypsin complexes (SEC receptor [3]): no significant inhibition of internalization
EVKFNKP [peptide 105B, Glu-Val-Lys-Phe-Asn-Lys-Pro] | does not compete at all | not inhibited | binding activity against the SEC receptor (SEC receptor [1]): nor does the adjacent heptapeptide Glu-Val-Lys-Phe-Asn-Lys-Pro (amino acids 363-369) [SEQ ID NO:8] have any such binding activity; effect on synthesis of α1 AT (synthesis of α1 AT [4]): no effect
KPFVFLM [peptide KPFVFLM] | no difference in inhibition of binding | – | –
FVALM [peptide FVALM, Phe-Val-Ala-Leu-Met] | – | – | increase in competitive binding efficacy (SEC receptor [2]; [7]): approximately 10%
CC(C)C[C@H](NC(=O)[C@H](Cc1ccc(O)cc1)NC(=O)[C@@H](NC(=O)[C@@H](N)Cc1ccccc1)C(C)C)C(=O)O [peptide 105C-C, Phe-Val-Tyr-Leu] (H-FVYL-OH) | completely abrogates competitive binding | not inhibited | competition for binding of 125I peptide 105Y to HepG2 cells (SEC receptor [1]; listed as FVYL): does not compete at all; binding activity against the SEC receptor (SEC receptor [1]): virtually no binding activity; inhibition of binding of α1 AT-125I trypsin complexes to HepG2 cells (SEC receptor [2]; listed as FVYL): does not compete at all
AVFLM [peptide AVFLM, Ala-Val-Phe-Leu-Met] | only minimally affects the competitive binding efficacy | only minimally affected competitive binding efficacy | inhibition of binding of α1 AT-125I trypsin complexes to HepG2 cells (SEC receptor [2]; listed as Substitution of A for F at residue 370): reduces competitive binding modestly
FVFLM [peptide FVFLM, Phe-Val-Phe-Leu-Met] | no significant difference in the competitive binding; also recorded: no difference in inhibition of binding | inhibits binding of α1 AT-^125 I trypsin complexes to HepG2 cells as effectively as unlabelled α1 AT-trypsin complexes, peptide 105Y and peptide 105C | –
FAFLM [peptide FAFLM] | – | no effect | –
ILVFY [peptide 105C-S] | completely abrogates competitive binding | not inhibited | –
KPFVFL [peptide KPFVFL, Lys-Pro-Phe-Val-Phe-Leu] | only a minimal inhibitory effect | – | inhibition of binding of 125I peptide 105Y (SEC receptor [1]; 30-fold molar excess, HepG2 cells): 17.8±1.3%; binding activity against the SEC receptor (SEC receptor [1]): only minimal binding activity
EVKFNKPFVYLI [peptide 105BC] | compete as effectively as peptide 105Y | – | effect on synthesis of complement protein factor B [5]: does not affect; effect on total protein synthesis [5]: does not affect; effect on synthesis of α1 AT (synthesis of α1 AT [4]): concentration-dependent increase in synthesis of α1 AT; effect on synthesis of α1 AT (synthesis of α1 AT [6]): mediated an increase in synthesis of α1 AT
FVFAM [peptide FVFAM] | – | – | reduction of competitive binding efficacy (SEC receptor [2]; [7]): 18%
